Measured values reported in the supplement of paper PMC12645437, “Orthogonal IMiD-Degron Pairs Induce Selective Protein Degradation in Cells” (ACS Chemical Biology, 2025).
The other results are listed elsewhere or left out.

The sequences below were run against no compound (DMSO) (assay: log2 fold change of degron read counts, EGFP-low vs EGFP+ sorted cells; higher = lower degron-EGFP level without compound (poor expression or instability)). Conditions: compound: DMSO control; 18 h.
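Also: jurkat cells carrying a lentiviral library of mutant zinc finger degrons fused to EGFP plus mCherry, mCherry+ cells FACS sorted, degron abundance counted by next-generation sequencing.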

| Sequence | log2 fold change of degron read counts |
| --- | --- |
| FGCEQCGATFTQKGNLLRHIKL | -1.5 |
| FHCSVCGHGFTQKGNLLRHIKL | -0.401 |
| LTCEICGFKCTQKGNLLRHIKL | -1.19 |
| LECPICGFLCTQKGNLLRHIKL | 0.315 |
| LFCPICGFKCTQKGNLLRHIKL | 0.553 |
| LWCPICGFECTQKGNLLRHIKL | 1.45 |
| FACPICGAQFTQKGNLLRHIKL | -0.141 |
| FRCNQCGHSFTQKGNLLRHIKL | -0.0851 |
| FWCPQCGAGFTQKGNLLRHIKL | 0.548 |
| FDCEICGRWFTQKGNLLRHIKL | 0.747 |
| FWCEICGAKFTQKGNLLRHIKL | -0.848 |
| FNCEICGRNFTQKGNLLRHIKL | -0.761 |
| FDCPVCGAKFTQKGNLLRHIKL | -1.22 |
| FYCDICGADFTQKGNLLRHIKL | -1.78 |
| LVCPICGFLCTQKGNLLRHIKL | 1.35 |
| FQCEICGHNFTQKGNLLRHIKL | -1.12 |
| LVCEICGFICTQKGNLLRHIKL | 0.601 |
| FDCNVCGAAFTQKGNLLRHIKL | -1.67 |
| FACDVCGASFTQKGNLLRHIKL | -1.35 |
| FQCDVCGAMFTQKGNLLRHIKL | -0.783 |
| FTCPICGAPFTQKGNLLRHIKL | 0.495 |
| FACDVCGARFTQKGNLLRHIKL | -1.06 |
| FNCEVCGADFTQKGNLLRHIKL | -2.16 |
| FFCPQCGAGFTQKGNLLRHIKL | 0.0377 |
| FCCDQCGANFTQKGNLLRHIKL | -1.99 |

| Sequence | log2 fold change of degron read counts |
| --- | --- |
| FKCEICGASFTQKGNLLRHIKL | -0.947 |
| FYCNVCGACFTQKGNLLRHIKL | -0.0945 |
| FACPQCGAVFTQKGNLLRHIKL | -0.178 |
| FLCDVCGADFTQKGNLLRHIKL | -1.16 |
| FYCPICGRSFTQKGNLLRHIKL | -3.25 |
| FLCPICGATFTQKGNLLRHIKL | -0.199 |
| FECNQCGHGFTQKGNLLRHIKL | -0.795 |
| FRCEICGAVFTQKGNLLRHIKL | -0.106 |
| FHCPVCGAMFTQKGNLLRHIKL | -0.184 |
| FLCPICGRHFTQKGNLLRHIKL | 0.0419 |
| FFCNQCGHSFTQKGNLLRHIKL | 0.344 |
| FYCPICGHLFTQKGNLLRHIKL | 0.714 |
| FGCNICGAYFTQKGNLLRHIKL | 0.719 |
| FFCEICGHLFTQKGNLLRHIKL | 0.5 |
| FLCPICGHYFTQKGNLLRHIKL | 0.213 |
| FACDICGAAFTQKGNLLRHIKL | -1.63 |
| FWCNQCGREFTQKGNLLRHIKL | 0.1 |
| FHCPQCGALFTQKGNLLRHIKL | -0.308 |
| FCCSVCGHYFTQKGNLLRHIKL | 0.429 |
| FWCEICGAAFTQKGNLLRHIKL | -1.05 |
| FQCNICGADFTQKGNLLRHIKL | -0.71 |
| FWCEICGRSFTQKGNLLRHIKL | -0.937 |
| FLCDQCGAYFTQKGNLLRHIKL | -0.413 |
| LACPICGFICTQKGNLLRHIKL | 1.28 |
| FGCDICGAQFTQKGNLLRHIKL | -1.3 |
